The results in this text go back to the RNAGym collection of RNA variant scans (doi:10.1093/nar/gkz1192).

To fix the notation:
B1: CPEB3 Ribozyme (parent)
chain: UAACAGGGGGCCACAGCAGAAGCGUUCACGUCGCAGCCCCUGUCAGAUUCUGGUGAAUCUGCGAAUUCUGCUGUAUAUCUC

The source gives no read counts; variants with many changes may rest on few reads.

This series covers variants of B1. Description: self-cleavage, relative activity (ratio to wild type); higher = more cleavage; in vitro, sequencing. A digest of the protocol: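 For each CPEB3 ribozyme variant, relative activity is its cleaved/total read fraction divided by the unmutated ribozyme's. Barcoded error-prone PCR libraries were transcribed by T7 RNA polymerase (5 hours, 37°C) and held in DNase I for 15 min before an EDTA stop, with cleavage occurring throughout. Template-switching reverse transcription and Illumina sequencing were used to read the RNAs. A 5-read minimum applied, and results are the mean of three batches.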
On to U26C U60A C81U, for which the self-cleavage was found to be 0.71.
For the variant A28G C40U A45U, the self-cleavage was 0.38.
As to U26C C34U A56G A57G A75G, the self-cleavage came out at 0.05.
For A28G A65G U78C the value was 0.19.
With U26G C38A A64G, the self-cleavage is 0.21.
For the variant U26C U48C U72C, the self-cleavage was 0.2.
For A28G A56G U60G, the self-cleavage amounted to 0.24.
As to C27A A28G U66C, the self-cleavage worked out at 0.18.
For U26C A28G U67C, the self-cleavage is 0.19.
For A28G A35G A45G U51A A56G the value was 0.8; for A28G C40U A45G C62G, 0.22; for U26C U51C U60A, 0.42.
For U26C U48C A56G the value was 0.16; for A28C A35U U54C, 0.16; for U26C U31A A47U U76A, 0.14.
In the case of U26C C39A U67C U69A it was 0.07.
For the variant U26C A56U A64U U72C, the self-cleavage amounted to 0.13.
Consider U26C A47G G63U, for which the self-cleavage worked out at 0.58.
In the case of U26C C44A U58C it was 0.2; in that of U26G A35G U43C U54C, 0.82.
For U26C A56G C62U U80A the value was 0.08; for U26C A28U C32A U58A, 0.08; for U26C C50A U66C, 0.16.
Take U26C C39U U41C U66C: the self-cleavage was 0.44.
For the variant A28C C40U A45G, the self-cleavage is 0.2.
For A28G C39A U66C U67C G70A the value was 0.55; for U26C U51C U66C U69A, 0.16.
Turning to A28C U54C A65U G70A, the self-cleavage was 0.07.
For U26C A28G U54A U58C the value was 0.22; for U26C A35U C44U G61C U67A, 0.17.
For the variant U26C A65G C68A A77G, the self-cleavage came out at 0.08.
In the case of A28G A47U U67C U74C U80A it was 0.1; in that of A28G A35U U60A U76C U80A, 0.09; in that of U26C U41A A47G U54C A56C, 0.12.
On to U26C U41A U60C, for which the self-cleavage was found to be 0.29.
Consider U26C U31A U41C, for which the self-cleavage was determined as 0.23.
In the case of U26C A47G U48C A56G C68U U74C it was 0.16; in that of U26C U31C A56G, 0.33; in that of C27G C32U U41C A56G, 0.13.
Consider U26C U43A A47G, for which the self-cleavage was 0.16.
Turning to A28C U43C A77G, the self-cleavage is 0.22.
As to A28G A56G C59U, the self-cleavage stood at 0.42.
Take C27A A47G U54C U67C: the self-cleavage was 0.11.
For U26C C27U G53A A56G the value was 0.3; for A28C U43C U54C A65U U72C, 0.19.
In the case of U26C C27U A64G U72G it was 0.09.
With A28G C39A U43C U72A, the self-cleavage came out at 0.04.
For A28C U31C A56U U76C the value was 0.1; for C27U A45C U72A, 0.05; for U26C C37A A56G G70A U72G, 0.05.
As to U26C A57G U72A, the self-cleavage was 0.4.
For U26C U49C U51A the value was 0.29; for U26C A28C U66C, 0.21; for U26C U31C G53A, 0.31.
For U26C A56C U69C the value was 0.11; for A28C C29A C37G, 0.52.
In the case of U26C U41C U67C it was 0.15; in that of U26C U43C U58C U69C, 0.48.
Take U26C A45G U72C: the self-cleavage was found to be 0.35.
For U26C U41A U66C U67C the value was 0.21; for A28C U49A A56U U72C, 0.83.
On to U26C A35G U48C A64G U72C, for which the self-cleavage was 0.19.
For C27U A45G A56G the value was 0.19.
In the case of U26C C32U U54A U74C it was 0.17.
In the case of U26C U48C U76A it was 0.34.
As for U26C A56U A77U, the self-cleavage worked out at 0.26.
In the case of A28G A45G U67G U74C A75G it was 0.06; in that of U26C A47U U54C, 0.19.
In the case of U26C A45U U54C A56G A57G U74A it was 0.21; in that of U26C U41G G70A U80C, 0.16.
In the case of U26C A28U U31C A35U A57G, the self-cleavage stood at 0.17.
For U26C U54G U72C A75G the value was 0.16; for A28G C59U A64G U76C, 0.28; for A28C U41C G42C U48C, 0.11.
As to U26C C32U U74A, the self-cleavage worked out at 0.28.
For U26C U58C U78C the value was 0.21; for U26C A28G C81U, 0.29; for U26C A64U U72A, 0.07.
For the variant A28G A65G U67C, the self-cleavage was 0.18.
Take A28G A65G U67A: the self-cleavage worked out at 0.45.
On to U26C A28G U49C, for which the self-cleavage was 0.19.
For U26G U43C G52U C62A G73A the value was 0.21.
In the case of U26C A35U U67C C68U U69A U72C it was 0.16; in that of U26C U67C U69A, 0.18.
